The RNAGym collection of RNA variant scans (doi:10.1073/pnas.2313332121)
This sample is rich in variants without activity.

B1: TPR 5TU (parent)
chain: GGAUCUUCUCGAUCUAACAAAAAAGACAAAUCUGCCACAAAGCUUGAGAGCAUCUUCGGAUGCAGAGGCGGCAGCCUUCGGUGGCGCGAUAGCGCCAACGUUCUCAACUAUGACACGCAAAACGCGUGCUCCGUUGAAUGGAGUUUAUCAUG

Variants of: B1
Assay: polymerase ribozyme fitness, log enrichment relative to wild type (log ratio); higher = more active; in vitro selection for triplet polymerase activity
How it was run: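 Input and output libraries were sequenced on Illumina after a single in vitro selection round, run in triplicate on PCR-built, transcribed mutant libraries of each subunit of a heterodimeric triplet polymerase ribozyme. Selection annealed libraries to a biotinylated primer, the partner subunit and triplets, incubated them frozen at −7 °C, then gel-excised extended constructs for streptavidin-bead capture and RT-PCR. Genotypes with ≥10 input reads and ≥1 read per output were kept. Fitness is the logarithm, taken in base 2, of genotype enrichment divided by wild-type enrichment, using inverse-variance-weighted replicate averages.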

With U55A A89C A119C as the variant, how does the “polymerase ribozyme fitness (log ratio)” value read?
Its value is -0.892.

With U55A C57A G59C G74C A106U as the variant, how does the “polymerase ribozyme fitness (log ratio)” value read?
The value was no more than -4.2.

With U56A C76G C93U as the variant, how does the “polymerase ribozyme fitness (log ratio)” value read?
Its value is no more than -4.2.

With U55A G71U G117A as the variant, how does the “polymerase ribozyme fitness (log ratio)” value read?
Its value is -3.07.

Which “polymerase ribozyme fitness (log ratio)” value does the source give for U55A U102C C129U C131U here?
Its value is no more than -4.2.

For U55G C57A C76G C87G G94C C108G C114A U146A, which “polymerase ribozyme fitness (log ratio)” value is on record?
Its value is no more than -4.2.

For U56G G141U, which “polymerase ribozyme fitness (log ratio)” value is on record?
The value was 0.498.

With U55A U78G G133U G141A U144C as the variant, how does the “polymerase ribozyme fitness (log ratio)” value read?
The value was no more than -4.2.

Which “polymerase ribozyme fitness (log ratio)” value does the source give for U55G C93U G140U U148C here?
Its value is no more than -4.2.

For U55A C85U C103U, which “polymerase ribozyme fitness (log ratio)” value is on record?
Its value is -0.7.

For U55A G68A C95U U139C G143U, which “polymerase ribozyme fitness (log ratio)” value is on record?
Its value is no more than -4.2.

With U56A A64G C79G as the variant, how does the “polymerase ribozyme fitness (log ratio)” value read?
The value was no more than -4.2.

With U56G G68A A115G C118A G124C G143U as the variant, how does the “polymerase ribozyme fitness (log ratio)” value read?
Its value is no more than -4.2.

For U56A C57U C76G A91G G143U U145G, which “polymerase ribozyme fitness (log ratio)” value is on record?
Its value is no more than -4.2.

Which “polymerase ribozyme fitness (log ratio)” value does the source give for U56A A60U C75A C79G C95U C125G U148G here?
Its value is no more than -4.2.

For U55C G71A C93A A107U G124A U134G, which “polymerase ribozyme fitness (log ratio)” value is on record?
The value was no more than -4.2.

Which “polymerase ribozyme fitness (log ratio)” value does the source give for U55A U82C C95G A107G G136C here?
The value was no more than -4.2.

Which “polymerase ribozyme fitness (log ratio)” value does the source give for C54U U82C G92C C93G C131A here?
Its value is no more than -4.2.

With U56A G88U G128U A142C as the variant, how does the “polymerase ribozyme fitness (log ratio)” value read?
The value was no more than -4.2.

Which “polymerase ribozyme fitness (log ratio)” value does the source give for U55A U77G U134C U139C here?
The value was no more than -4.2.

With U55G G67A C93A A122G as the variant, how does the “polymerase ribozyme fitness (log ratio)” value read?
The value was no more than -4.2.

Which “polymerase ribozyme fitness (log ratio)” value does the source give for U56A G68U A89G G94C A107U G143A here?
The value was no more than -4.2.

For U56A U145G, which “polymerase ribozyme fitness (log ratio)” value is on record?
Its value is -0.287.

Which “polymerase ribozyme fitness (log ratio)” value does the source give for U55A A73U C99U U145C here?
Its value is no more than -4.2.

With U56G G83A C87G C116G G140C as the variant, how does the “polymerase ribozyme fitness (log ratio)” value read?
Its value is no more than -4.2.

With U55A C87A A137C as the variant, how does the “polymerase ribozyme fitness (log ratio)” value read?
The value was no more than -4.2.

For C54U U77C G94U C96U, which “polymerase ribozyme fitness (log ratio)” value is on record?
The value was no more than -4.2.

With U55A C87U A91C as the variant, how does the “polymerase ribozyme fitness (log ratio)” value read?
The value was no more than -4.2.

For U56C U78A C85U A89G G126U U144C, which “polymerase ribozyme fitness (log ratio)” value is on record?
Its value is no more than -4.2.

For U56A U101G C103G, which “polymerase ribozyme fitness (log ratio)” value is on record?
Its value is no more than -4.2.

Which “polymerase ribozyme fitness (log ratio)” value does the source give for U56A A64U G86A C95U A113G C131G U139C A142C here?
The value was no more than -4.2.

Which “polymerase ribozyme fitness (log ratio)” value does the source give for U56A C103A A137U here?
Its value is no more than -4.2.

Which “polymerase ribozyme fitness (log ratio)” value does the source give for U55G U82A A91C C95A here?
The value was no more than -4.2.

With C54U U104G as the variant, how does the “polymerase ribozyme fitness (log ratio)” value read?
Its value is -1.21.

With U56A G58C U61A G86U C87A G100U as the variant, how does the “polymerase ribozyme fitness (log ratio)” value read?
Its value is no more than -4.2.

With U56G A60C G81A G94U A106G as the variant, how does the “polymerase ribozyme fitness (log ratio)” value read?
Its value is -3.84.

For U55G C72U A138C, which “polymerase ribozyme fitness (log ratio)” value is on record?
Its value is no more than -4.2.

Which “polymerase ribozyme fitness (log ratio)” value does the source give for U56A G92A C93U C103A U139A here?
The value was no more than -4.2.

For C57A A66U C87U C105G U148G, which “polymerase ribozyme fitness (log ratio)” value is on record?
The value was no more than -4.2.

Which “polymerase ribozyme fitness (log ratio)” value does the source give for U56C U102G A142G here?
Its value is -3.95.

For U55G A91U, which “polymerase ribozyme fitness (log ratio)” value is on record?
Its value is no more than -4.2.

Which “polymerase ribozyme fitness (log ratio)” value does the source give for U55A G58U C93G here?
Its value is -3.78.

With U55A G94C A121U U148G as the variant, how does the “polymerase ribozyme fitness (log ratio)” value read?
Its value is no more than -4.2.

With U55A C69U U78A G80U A91C C96G C123G A150U as the variant, how does the “polymerase ribozyme fitness (log ratio)” value read?
The value was no more than -4.2.

With U55G C95U C105U C116A A147C as the variant, how does the “polymerase ribozyme fitness (log ratio)” value read?
The value was no more than -4.2.

For U55G C69U U78A A91U C93U G141A, which “polymerase ribozyme fitness (log ratio)” value is on record?
Its value is no more than -4.2.

For U56A C63U A64U G84A G128A, which “polymerase ribozyme fitness (log ratio)” value is on record?
Its value is no more than -4.2.

Which “polymerase ribozyme fitness (log ratio)” value does the source give for U55A C85A G141C here?
The value was -1.86.

With C54U U61A A66C C72A C87A G88U C103A as the variant, how does the “polymerase ribozyme fitness (log ratio)” value read?
Its value is no more than -4.2.

For U55A G88A C131U, which “polymerase ribozyme fitness (log ratio)” value is on record?
The value was no more than -4.2.

With U55A A60C G62A U101C U135A A137G G140U as the variant, how does the “polymerase ribozyme fitness (log ratio)” value read?
Its value is no more than -4.2.

For U56A C69U G71C C79U A89U A91G C132U, which “polymerase ribozyme fitness (log ratio)” value is on record?
The value was no more than -4.2.

Which “polymerase ribozyme fitness (log ratio)” value does the source give for U55A C76G A91U A150U here?
Its value is no more than -4.2.

For U55A G58A A60G A89C A91U, which “polymerase ribozyme fitness (log ratio)” value is on record?
The value was no more than -4.2.

For U56A A113U, which “polymerase ribozyme fitness (log ratio)” value is on record?
Its value is -1.87.

With U55A G86C A150C as the variant, how does the “polymerase ribozyme fitness (log ratio)” value read?
Its value is no more than -4.2.

Which “polymerase ribozyme fitness (log ratio)” value does the source give for U55A C57U G74U C93U here?
Its value is no more than -4.2.

Which “polymerase ribozyme fitness (log ratio)” value does the source give for U55C G74C G124A here?
The value was -4.12.

For U55G G83A A115C C123U G136U, which “polymerase ribozyme fitness (log ratio)” value is on record?
Its value is -2.92.

Which “polymerase ribozyme fitness (log ratio)” value does the source give for U56A G81U C93U G141C here?
Its value is -1.52.

Which “polymerase ribozyme fitness (log ratio)” value does the source give for U55A C95U here?
Its value is -0.137.

For U56A G81A G126U U135C A138C G141C, which “polymerase ribozyme fitness (log ratio)” value is on record?
Its value is no more than -4.2.

With U55G C87A C93A C99U U134A as the variant, how does the “polymerase ribozyme fitness (log ratio)” value read?
Its value is no more than -4.2.

Which “polymerase ribozyme fitness (log ratio)” value does the source give for C54U U56A G58A C85U C95A here?
Its value is -1.2.

For U55G A138C, which “polymerase ribozyme fitness (log ratio)” value is on record?
The value was no more than -4.2.

Which “polymerase ribozyme fitness (log ratio)” value does the source give for U55A G92C C103G G128A G141U here?
Its value is no more than -4.2.

For U55A C76A G84U C116U A137U, which “polymerase ribozyme fitness (log ratio)” value is on record?
Its value is no more than -4.2.

Which “polymerase ribozyme fitness (log ratio)” value does the source give for U56C G74U C76U G84U C125G A138C here?
The value was no more than -4.2.

For U55G A91U C116G C123A G133C, which “polymerase ribozyme fitness (log ratio)” value is on record?
The value was no more than -4.2.

Which “polymerase ribozyme fitness (log ratio)” value does the source give for U56A C75A U102A U104G here?
The value was no more than -4.2.

For U55A C87U C93U, which “polymerase ribozyme fitness (log ratio)” value is on record?
Its value is -4.13.

Which “polymerase ribozyme fitness (log ratio)” value does the source give for U55A C87U C93G here?
The value was no more than -4.2.

For U55A G92U G140A, which “polymerase ribozyme fitness (log ratio)” value is on record?
The value was no more than -4.2.

For U56G C69A C85G C103G, which “polymerase ribozyme fitness (log ratio)” value is on record?
The value was no more than -4.2.

Which “polymerase ribozyme fitness (log ratio)” value does the source give for U56A U82C C85G G128U G141C here?
The value was no more than -4.2.

For U56A G74A A138G, which “polymerase ribozyme fitness (log ratio)” value is on record?
Its value is no more than -4.2.

Which “polymerase ribozyme fitness (log ratio)” value does the source give for U55G G74U C79U A120G A137U here?
The value was no more than -4.2.

Which “polymerase ribozyme fitness (log ratio)” value does the source give for U56A G68A A73G A107U C108U G136U A137U here?
The value was no more than -4.2.

With U56A A60C G88C C95U U139G G140A as the variant, how does the “polymerase ribozyme fitness (log ratio)” value read?
The value was no more than -4.2.

For U55G A60G G133U G136C, which “polymerase ribozyme fitness (log ratio)” value is on record?
Its value is no more than -4.2.

Which “polymerase ribozyme fitness (log ratio)” value does the source give for C54U U78A A98U A113G C116G here?
Its value is no more than -4.2.

Which “polymerase ribozyme fitness (log ratio)” value does the source give for U56C U102A G136C A150G here?
The value was no more than -4.2.

With U56A G124C as the variant, how does the “polymerase ribozyme fitness (log ratio)” value read?
Its value is -1.68.
